Test results taken from patent US20260224723A1, “ANTI-B7H3 ANTIBODY-DRUG CONJUGATE AND USE THEREOF” (Duality Biologics (Suzhou) Co., Ltd., priority 2022, published 2026).

Tests used:
[1] = Thermal stability (Tm) determined by DSF; assay type: physicochemical; conditions: Tm1
Method: Tm (melting temperature) of each antibody was investigated using QuantStudio® 7 Flex real-time PCR system (Applied Biosystems). 19 μL of the antibody solution in Example 1.2 was mixed with 1 μL of SYPRO Orange solution (Invitrogen) and transferred to a 96-well plate (Applied Biosystems). The plate was sealed with an optical adhesive film (Applied Biosystems) and centrifuged at 3,000 rpm for 5 min to remove any air bubbles. The plate was heated from 26° C. to 95° C. at a rate of 0.9° C./min, and the resulting fluorescence data were collected. The negative derivatives of the fluorescence changes with respect to different temperatures were calculated, and the maximum value was defined as the melting temperature Tm. If a protein has multiple unfolding transitions, the first Tm were reported and designated Tm1. Data collection and Tm calculation were performed automatically by QuantStudio® real-time PCR software (v1.3).

[2] = test system: U87 human brain cancer cells; test: U87 MG subcutaneous xenograft tumor-bearing mouse model; assay type: in vivo, mice; conditions: for T/C / TGI: day 20
Text: 6- to 8-week-old female NCG mice (purchased from Jiangsu GemPharmatech Co., Ltd.) were used as test animals. 5×10^6 U87 human brain cancer cells were inoculated subcutaneously into the right sides of the necks or dorsa of 6- to 8-week-old female NCG mice. The growth of tumors in mice was observed. When the volume of the tumors reached about 187 mm^3, the tumor-bearing mice were randomized into groups with 6 mice in each of the blank control group and the treatment groups. […] Doses administered were 1 mg/kg and 3 mg/kg. The experiment ended on day 20. Experimental grouping and dosing were as follows.
At the end of the experiment, mice were euthanized and tumor inhibition rate TGI was calculated as follows:
[formula] • Ti: mean tumor volumes of the treatment groups and the positive control group on day i of administration; • T0: mean tumor volumes of the treatment groups and the positive control group on day 0 of administration; • Vi: mean tumor volume of the negative control group on day i of administration; • V0: mean tumor volume of the negative control group on day 0 of administration.

Human B7-H3(4Ig) = biological target: T1, Human B7-H3(4Ig) (Homo sapiens, UniProt Q5ZPR3); test: ELISA binding to recombinant human B7H3 antigen; conditions: FIG. 13
T1 construct: His tag; purchased ACRO B7B-H52E7
T1 sequence (Q5ZPR3 29-534): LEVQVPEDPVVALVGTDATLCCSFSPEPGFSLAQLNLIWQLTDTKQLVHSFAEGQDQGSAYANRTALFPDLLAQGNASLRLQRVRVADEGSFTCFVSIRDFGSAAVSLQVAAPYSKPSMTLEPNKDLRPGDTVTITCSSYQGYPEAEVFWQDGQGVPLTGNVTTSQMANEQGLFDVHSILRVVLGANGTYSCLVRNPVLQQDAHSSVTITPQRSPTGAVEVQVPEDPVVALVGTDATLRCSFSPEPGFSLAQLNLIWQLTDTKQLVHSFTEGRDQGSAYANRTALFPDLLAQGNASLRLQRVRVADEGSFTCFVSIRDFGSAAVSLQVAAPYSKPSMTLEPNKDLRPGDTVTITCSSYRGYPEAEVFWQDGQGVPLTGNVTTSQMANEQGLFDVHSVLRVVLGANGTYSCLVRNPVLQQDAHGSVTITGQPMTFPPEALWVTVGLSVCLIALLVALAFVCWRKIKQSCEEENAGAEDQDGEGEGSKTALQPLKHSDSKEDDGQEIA
Method: In this example, whether there was a change in specific binding of the antibody to B7H3 antigen protein before and after conjugation to the drug was determined using ELISA. The information on the antigens and the test antibody used was as follows.
A 96-well ELISA plate was coated with 2 μg/mL recombinant human B7H3 antigen (see the table above) at 30 μL/well and kept at 4° C. overnight. The following day, the well plate was washed 3 times with PBST and then blocked with 5% skim milk for 2 h. […] The plate was then washed 3 times with PBST, and an HRP-labeled anti-human secondary antibody diluted in a 1:5000 ratio was then added at 100 μL/well and incubated for 1 h. After the incubation was complete, the plate was washed six times with PBST, and TMB (SurModics, TMBS-1000-01) was added for color development. Based on the results of the color development, the reaction was stopped by adding 2M HCl, and the plate was read by a microplate reader (Molecular Devices, SpecterMax 190) at OD450.

[3] = test system: LD1-2034-362055 patient-derived prostate cancer tumor cells; test: Prostate cancer micro patient-derived xenograft model LD1-2034-362055; assay type: in vivo, mice; conditions: 10 mg/kg single tail vein injection, 10 days, LD1-2034-362055 model
Text: Tumor tissues of patient-derived prostate cancer transplantation models LD1-2027-410644 and LD1-2034-362055 (obtained from Shanghai LIDE Biotech., Co. Ltd.) were inoculated subcutaneously into mice. When the tumors grew to 500-800 mm^3, the tumor tissues were surgically and aseptically removed from the mice, and non-tumor tissues and necrotic tissues were removed in a biosafety cabinet to ensure the purity of the inoculated tumor tissues. The mice were euthanized. The treated tumor tissues were cut into small tumor masses of 1-3 mm^3, and the tumor masses were digested with the collagenase digest at 37° C. for 1-2 h. The supernatant was removed by centrifugation at 1200 rpm for 3 min, and the cells were resuspended in 10 mL of PBS containing 1% FBS and counted on a hemocytometer. […] The cells were resuspended in an RPMI1640 cell culture medium and counted on a hemocytometer. […]
The cell suspension was placed into capsules. […] The day of inoculation was recorded as day 0, and the animals were subjected to a single administration by tail vein injection. […]
At the end of the experiment, the mice were euthanized. The capsules were removed and cell viability assay was performed with CellTiter-Glo, i.e., the capsules were cut into pieces, PBS and CellTiter-Glo™ reagent with the same volume were added, and the luminescence value was measured. […]

B1: W301088-1.145.16-z3-p1-uIgG1KV320: humanized anti-B7H3 IgG1 antibody, heavy chain SEQ ID NO: 12, light chain SEQ ID NO: 13 (antibody)
heavy: QVQLQESGPGLVKPSQTLSLTCTVTDYSITGDYAWNWIRQHPGKGLEWIGYISYSGSTSYNPSLQSRVTISRDTSKNQFSLKLSSVTAADTAVYFCARSLGRRWYFVVWGQGTTVTVSSASTKGPSVFPLAPSSKSTSGGTAALGCLVKDYFPEPVTVSWNSGALTSGVHTFPAVLQSSGLYSLSSVVTVPSSSLGTQTYICNVNHKPSNTKVDKRV[not shown - human IgG1 Fc with changes]
light: DIVMTQSPDSLAVSLGERATINCKSSQSLLQSSNQKNYLAWYQQKPGQPPKLLIYFASTRESGVPDRFSGSGSGTDFTLTISSLQAEDVAVYYCQQHYSAPWTFGGGTKVEIKRTVAAPSVFIFPPSDEQLKSGTASVVCLLNNFYPREAKVQWKVDNALQSGNSQESVTEQDSKDSTYSLSSTLTLSKADYEKHKVYACEVTHQGLSSPVTKSFNRGEC
- Tm [1]: 70.1 °C

B2: WBP301088-X2: antibody WBP301088 conjugated to linker-payload X2; the DAR6 batch was used in Examples 3-11 (conjugate)
heavy: QVQLQESGPGLVKPSQTLSLTCTVTDYSITGDYAWNWIRQHPGKGLEWIGYISYSGSTSYNPSLQSRVTISRDTSKNQFSLKLSSVTAADTAVYFCARSLGRRWYFVVWGQGTTVTVSSASTKGPSVFPLAPSSKSTSGGTAALGCLVKDYFPEPVTVSWNSGALTSGVHTFPAVLQSSGLYSLSSVVTVPSSSLGTQTYICNVNHKPSNTKVDKRV[not shown - human IgG1 Fc with changes]
light: DIVMTQSPDSLAVSLGERATINCKSSQSLLQSSNQKNYLAWYQQKPGQPPKLLIYFASTRESGVPDRFSGSGSGTDFTLTISSLQAEDVAVYYCQQHYSAPWTFGGGTKVEIKRTVAAPSVFIFPPSDEQLKSGTASVVCLLNNFYPREAKVQWKVDNALQSGNSQESVTEQDSKDSTYSLSSTLTLSKADYEKHKVYACEVTHQGLSSPVTKSFNRGEC
- Tumor volume ([2]; 1 mg/kg i.v. single dose, Day 0): 187 ± 25 mm^3
- Tumor volume ([2]; 1 mg/kg i.v. single dose, Day 3): 234 ± 27 mm^3
- Tumor volume ([2]; 1 mg/kg i.v. single dose, Day 6): 308 ± 49 mm^3
- Tumor volume ([2]; 1 mg/kg i.v. single dose, Day 9): 387 ± 42 mm^3
- Tumor volume ([2]; 1 mg/kg i.v. single dose, Day 13): 439 ± 51 mm^3
- Tumor volume ([2]; 1 mg/kg i.v. single dose, Day 16): 646 ± 42 mm^3
- Tumor volume ([2]; 1 mg/kg i.v. single dose, Day 20): 1074 ± 64 mm^3
- T/C ([2]; 1 mg/kg i.v. single dose): 65.06%
- TGI ([2]; 1 mg/kg i.v. single dose): 39.40%
- Tumor volume ([2]; 3 mg/kg i.v. single dose, Day 0): 188 ± 20 mm^3
- Tumor volume ([2]; 3 mg/kg i.v. single dose, Day 3): 220 ± 25 mm^3
- Tumor volume ([2]; 3 mg/kg i.v. single dose, Day 6): 254 ± 43 mm^3
- Tumor volume ([2]; 3 mg/kg i.v. single dose, Day 9): 231 ± 45 mm^3
- Tumor volume ([2]; 3 mg/kg i.v. single dose, Day 13): 202 ± 49 mm^3
- Tumor volume ([2]; 3 mg/kg i.v. single dose, Day 16): 266 ± 80 mm^3
- Tumor volume ([2]; 3 mg/kg i.v. single dose, Day 20): 474 ± 148 mm^3
- T/C ([2]; 3 mg/kg i.v. single dose): 28.70%
- TGI ([2]; 3 mg/kg i.v. single dose): 80.49%
- anti-tumor activity (in words) ([2]; single dose, 1 and 3 mg/kg): significant dose-dependent anti-tumor activity
- change in binding activity to human B7H3 antigen protein before and after conjugation (Human B7-H3(4Ig)): no significant change
- Mean signal value (CellTiter-Glo cell viability at endpoint) [3]: 1118020.86
